This is one part of the list.

This is an account of results in a collection of fitness landscapes (doi:10.1126/science.1257360).

First the molecules themselves.
B1: PhoQ; a variant is named by its letters at X, in order, P23837 (parent)
chain: MKKLLRLFFPLSLRVRFLLATAAVVLVLSLAYGMVALIGYSVSFDKTTFRLLRGESNLFYTLAKWENNKLHVELPENIDKQSPTMTLIYDENGQLLWAQRDVPWLMKMIQPDWLKSNGFHEIEADVNDTSLLLSGDHSIQQQLQEVREDDDDAEMTHSVAVNVYPATSRMPKLTIVVVDTIPVELKSSYMVWSWFIYVLSANLLLVIPLLWVAAWWSLRPIEALAKEVRELEEHNRELLNPATTRELTSLVRNLNRLLKSERERYDKYRTTLTDLTHSLKTPLXXLQXXLRSLRSEKMSVSDAEPVMLEQISRISQQIGYYLHRASMRGGTLLSRELHPVAPLLDNLTSALNKVYQRKGVNISLDISPEISFVGEQNDFVEVMGNVLDNACKYCLEFVEISARQTDEHLYIVVEDDGPGIPLSKREVIFDRGQRVDTLRPGQGVGLAVAREITEQYEGKIVAGESMLGGARMEVIFGRQHSAPKDE

This assay covers variants of B1. Put plainly: enrichment ratio after two sorts for PhoP signalling (ratio (wild type AVST 3.29)); higher = more functional. Particulars: with PhoP (E. coli).
Consider STVS, for which the enrichment ratio was 6.89.

As to GNPQ, the enrichment ratio is at most 0.25. The same measure for HFFI: at most 0.25; for HPLY: at most 0.25.

In the case of SSGE, the enrichment ratio came out at 4.25. As to QRRV, the enrichment ratio is at most 0.25. RGLA: the enrichment ratio is at most 0.25. NTMN: the enrichment ratio is at most 0.25. Next, DRPW: at most 0.25; HEYP: at most 0.25; EGCE: at most 0.25. Take WITS: the enrichment ratio is at most 0.25. The same measure for GACN: at most 0.25; for DKKL: at most 0.25.

Turning to DEFV, the enrichment ratio was at most 0.25. On to DFLS, for which the enrichment ratio is at most 0.25. Turning to NQCF, the enrichment ratio was at most 0.25. FPFY: the enrichment ratio was at most 0.25.

Turning to AGVR, the enrichment ratio is at most 0.25. The same measure for PPNL: at most 0.25. In the case of YMSR, the enrichment ratio is at most 0.25. The same measure for MAKG: at most 0.25; for DTFD: at most 0.25; for PSNL: at most 0.25. In the case of HAPT, the enrichment ratio is at most 0.25.

For LLHF, the enrichment ratio is at most 0.25. In the case of VLGN, the enrichment ratio was at most 0.25.

On to NSPA, for which the enrichment ratio was at most 0.25. The same measure for ITTK: at most 0.25; for WDGH: at most 0.25.

Take IKAD: the enrichment ratio was at most 0.25. Turning to DRDC, the enrichment ratio was at most 0.25. Next, LDNG: at most 0.25; KFQR: at most 0.25.

As for SKEL, the enrichment ratio was at most 0.25. Next, AILN: 4.12; LMKC: at most 0.25; IPPN: at most 0.25.

With MRNR, the enrichment ratio was at most 0.25. Next, YRPR: at most 0.25.

For the variant DHYL, the enrichment ratio was at most 0.25. Next, TEPI: at most 0.25. As for MFDN, the enrichment ratio was at most 0.25. DWQA: the enrichment ratio was at most 0.25.

As for RLHR, the enrichment ratio is at most 0.25. Next, NFHR: at most 0.25. Next, WNHP: at most 0.25.

Turning to DSMR, the enrichment ratio was at most 0.25.

On to QQFL, for which the enrichment ratio stood at 1.12.

As for RSIS, the enrichment ratio was at most 0.25. On to PRPG, for which the enrichment ratio is at most 0.25. Turning to RHLH, the enrichment ratio was at most 0.25. Next, AISL: 7.95; AREY: at most 0.25.

As to FRLY, the enrichment ratio is at most 0.25. For the variant WPHD, the enrichment ratio is at most 0.25. As for IQPE, the enrichment ratio was at most 0.25. The same measure for LDKC: at most 0.25; for EGCS: at most 0.25; for FGWN: at most 0.25. Take ETRL: the enrichment ratio is at most 0.25.

As for QKNS, the enrichment ratio was determined as 2.68. Next, HIGH: at most 0.25; LHDR: at most 0.25. Next, YYRK: at most 0.25; YAAD: at most 0.25. The same measure for QDLN: at most 0.25; for FSDS: at most 0.25. For ATVP, the enrichment ratio is at most 0.25. The same measure for DHYY: at most 0.25. Regarding TCMG, the enrichment ratio worked out at 11.4.

Turning to WTYQ, the enrichment ratio is at most 0.25. The same measure for WSKP: at most 0.25; for NVIN: at most 0.25. Next, FKMF: at most 0.25; DNQM: at most 0.25. Regarding SFWL, the enrichment ratio was at most 0.25. As for YFTK, the enrichment ratio is at most 0.25. In the case of PAGK, the enrichment ratio is at most 0.25. In the case of FLFS, the enrichment ratio was at most 0.25.

In the case of YSGA, the enrichment ratio is at most 0.25.

Regarding WRSS, the enrichment ratio is at most 0.25. On to PTKE, for which the enrichment ratio was at most 0.25. With KFST, the enrichment ratio was at most 0.25. Next, WFMW: at most 0.25; DFSC: at most 0.25; FTEA: at most 0.25. Next, SFIT: at most 0.25. Take IHHI: the enrichment ratio was at most 0.25.

Consider IIEK, for which the enrichment ratio is at most 0.25. Next, RAID: at most 0.25. Take LSNN: the enrichment ratio was at most 0.25.

Regarding EFNF, the enrichment ratio is at most 0.25. Take DLWA: the enrichment ratio was at most 0.25. The same measure for RYRD: at most 0.25; for HEMV: at most 0.25. The same measure for HPFH: at most 0.25. Next, VDIC: at most 0.25; QTLE: at most 0.25; GEPC: at most 0.25.

On to TNTP, for which the enrichment ratio is at most 0.25.

As to TNKQ, the enrichment ratio was at most 0.25.

On to ISYD, for which the enrichment ratio was at most 0.25. Next, LLMN: at most 0.25. The same measure for MYWD: at most 0.25; for YRYE: at most 0.25. In the case of PPLS, the enrichment ratio was at most 0.25. Next, HQND: at most 0.25; FQPT: at most 0.25; KLTV: at most 0.25. Regarding HFRC, the enrichment ratio is at most 0.25. In the case of NKSN, the enrichment ratio is at most 0.25. KTEH: the enrichment ratio is at most 0.25.

For ANPT, the enrichment ratio is at most 0.25. Next, FTYT: at most 0.25. The same measure for WQFM: at most 0.25; for YCRL: at most 0.25; for YVGD: at most 0.25. In the case of YPHM, the enrichment ratio is at most 0.25. Next, GWGE: at most 0.25.

Regarding LTKW, the enrichment ratio is at most 0.25. For the variant TGNG, the enrichment ratio came out at 23.3. The same measure for GGYK: at most 0.25.

On to YWTT, for which the enrichment ratio was at most 0.25. Next, QNVW: at most 0.25. Next, LERN: at most 0.25; TMHG: 13.3. The same measure for EIPH: at most 0.25.

With PVRW, the enrichment ratio was at most 0.25. The same measure for DHWN: at most 0.25; for DCAH: at most 0.25; for AVNN: at most 0.25. On to KDDY, for which the enrichment ratio was at most 0.25. On to LLQF, for which the enrichment ratio was at most 0.25. FSLL: the enrichment ratio was 13.5. As for SYAL, the enrichment ratio was at most 0.25. The same measure for AYYS: at most 0.25; for DATR: at most 0.25. The same measure for PFSL: at most 0.25; for AKPI: at most 0.25; for SRAY: at most 0.25. The same measure for IMLD: at most 0.25; for FPLI: at most 0.25.

For the variant WCLC, the enrichment ratio was at most 0.25.

GAHR: the enrichment ratio is at most 0.25.

Regarding HLKR, the enrichment ratio was at most 0.25. On to IAHK, for which the enrichment ratio was at most 0.25. As to VNGC, the enrichment ratio is at most 0.25. For GFEM, the enrichment ratio was at most 0.25. Turning to PWLP, the enrichment ratio was at most 0.25. Turning to NPLN, the enrichment ratio was at most 0.25.

As to MYSY, the enrichment ratio was at most 0.25. Next, TDST: 3.38.
